The other results are listed elsewhere or left out. The energies were worked out here from pooled read counts, against the library average; single values are noisy.

The target of the test is T1, Pho4 (S. cerevisiae) (UniProt P07270).
T1 sequence: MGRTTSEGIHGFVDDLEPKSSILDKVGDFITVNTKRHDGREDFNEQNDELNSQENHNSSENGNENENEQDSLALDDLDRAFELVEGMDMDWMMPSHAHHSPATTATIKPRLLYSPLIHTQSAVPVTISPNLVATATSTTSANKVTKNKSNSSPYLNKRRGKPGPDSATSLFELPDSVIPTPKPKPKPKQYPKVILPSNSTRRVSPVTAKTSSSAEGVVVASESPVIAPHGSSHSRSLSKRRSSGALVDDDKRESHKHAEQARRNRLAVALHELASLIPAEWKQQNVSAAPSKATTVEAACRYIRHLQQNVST
The experiment in a line: relative binding free energy (BET-seq); higher = weaker binding. Conditions: reference: library average.
Turning to TTGGCCACGTGTAGCT, the “relative binding free energy” value worked out at 0.04 kcal/mol.

Turning to TCTTTCACGTGGAAGG, the “relative binding free energy” value came out at 0.28 kcal/mol.

On to GCCGGCACGTGTGGTT, for which the “relative binding free energy” value is 0.05 kcal/mol.

As to ATTGACACGTGTATGG, the “relative binding free energy” value came to 0.01 kcal/mol.

On to TCTGGCACGTGCGTAT, for which the “relative binding free energy” value was -0.11 kcal/mol.

As for TACATCACGTGGTGCG, the “relative binding free energy” value amounted to 0.13 kcal/mol.

On to ATTATCACGTGGCTTT, for which the “relative binding free energy” value was 0.05 kcal/mol.

TCTTGCACGTGCGTTG: the “relative binding free energy” value was found to be 0.05 kcal/mol.

Regarding ATTGGCACGTGACAGG, the “relative binding free energy” value is -0.11 kcal/mol.

Consider ATTGACACGTGGATGG, for which the “relative binding free energy” value worked out at 0.03 kcal/mol.

TACTGCACGTGCGGTT: the “relative binding free energy” value is -0.02 kcal/mol.

In the case of GACTGCACGTGTGGTG, the “relative binding free energy” value turned out to be 0.07 kcal/mol.

For the sequence GGGAGCACGTGTGGAT, the “relative binding free energy” value is -0.06 kcal/mol.

Regarding TGGGTCACGTGAGTTT, the “relative binding free energy” value was 0.38 kcal/mol.

For the sequence CTCGTCACGTGATTGG, the “relative binding free energy” value is 0.27 kcal/mol.

Take GGGAGCACGTGGCGGC: the “relative binding free energy” value is -0.06 kcal/mol.

In the case of CGGGGCACGTGAGAAT, the “relative binding free energy” value was 0.12 kcal/mol.

With GCATGCACGTGGGTCG, the “relative binding free energy” value is -0.15 kcal/mol.

Turning to AGACACACGTGGGTGT, the “relative binding free energy” value is -0.22 kcal/mol.

With TAGTTCACGTGTAAGA, the “relative binding free energy” value is 0.39 kcal/mol.

Take CGCAGCACGTGGGTAG: the “relative binding free energy” value was -0.18 kcal/mol.

As for ATTGTCACGTGTGCTT, the “relative binding free energy” value came to 0.08 kcal/mol.

In the case of AGAGTCACGTGGAGTG, the “relative binding free energy” value was found to be 0.1 kcal/mol.

For the sequence CATTTCACGTGGGTTA, the “relative binding free energy” value stood at 0.19 kcal/mol.

For GGGCACACGTGGTGTT, the “relative binding free energy” value amounted to 0.02 kcal/mol.

On to ACGTTCACGTGGGTGA, for which the “relative binding free energy” value came to 0.17 kcal/mol.

As for GGGCACACGTGGGATG, the “relative binding free energy” value was -0.02 kcal/mol.

As to AGTCACACGTGGTTGC, the “relative binding free energy” value was 0.14 kcal/mol.

As for GGAAACACGTGGGAGC, the “relative binding free energy” value was 0.16 kcal/mol.

As to TGTGGCACGTGTATGC, the “relative binding free energy” value was -0.07 kcal/mol.

In the case of TGTTACACGTGTGGTT, the “relative binding free energy” value was found to be 0.2 kcal/mol.

On to ATTGGCACGTGATAGA, for which the “relative binding free energy” value is -0.04 kcal/mol.

In the case of GTGCGCACGTGCGGAG, the “relative binding free energy” value was -0.1 kcal/mol.

As to AAGCTCACGTGGGGTT, the “relative binding free energy” value was 0.23 kcal/mol.

Take TGATGCACGTGGCGTT: the “relative binding free energy” value was -0.19 kcal/mol.

For TCAGGCACGTGAGGAT, the “relative binding free energy” value amounted to 0.2 kcal/mol.

Turning to TGGGACACGTGCCTGG, the “relative binding free energy” value was -0.12 kcal/mol.

Take CGTGTCACGTGGTGAT: the “relative binding free energy” value stood at 0.06 kcal/mol.

For ATCCGCACGTGGGGTG, the “relative binding free energy” value is -0.26 kcal/mol.

Take GGCTCCACGTGAAGGG: the “relative binding free energy” value came out at 0.61 kcal/mol.

With CATTGCACGTGGTTTA, the “relative binding free energy” value amounted to 0.1 kcal/mol.

On to ACAAGCACGTGGGAGG, for which the “relative binding free energy” value is -0.2 kcal/mol.

In the case of GGTGTCACGTGTGTAT, the “relative binding free energy” value amounted to 0.29 kcal/mol.

With AAGGTCACGTGCAGGG, the “relative binding free energy” value was 0.01 kcal/mol.

On to TTATTCACGTGAGTGA, for which the “relative binding free energy” value turned out to be 0.57 kcal/mol.

Take CGTTGCACGTGGTTCT: the “relative binding free energy” value is -0.01 kcal/mol.

Turning to AGTTTCACGTGATCAT, the “relative binding free energy” value stood at 0.13 kcal/mol.

Consider ATGTACACGTGATAGG, for which the “relative binding free energy” value stood at 0.2 kcal/mol.

For the sequence GGATTCACGTGAAGTT, the “relative binding free energy” value was determined as 0.45 kcal/mol.

As to TTAGGCACGTGTGGGT, the “relative binding free energy” value is -0.1 kcal/mol.

As for GGATGCACGTGGTTAG, the “relative binding free energy” value was -0.11 kcal/mol.

Regarding GGGTTCACGTGTAAAG, the “relative binding free energy” value was 0.41 kcal/mol.

Consider ACGGGCACGTGGGGAC, for which the “relative binding free energy” value is -0.23 kcal/mol.

Regarding GGTGGCACGTGGTAGC, the “relative binding free energy” value is -0.04 kcal/mol.

Take TGGGTCACGTGCTAAT: the “relative binding free energy” value is -0.01 kcal/mol.

With GCGGTCACGTGTGTAT, the “relative binding free energy” value worked out at 0.19 kcal/mol.

With TGGAACACGTGACGTG, the “relative binding free energy” value was 0.09 kcal/mol.

For the sequence TTTTCCACGTGTGAGG, the “relative binding free energy” value amounted to 0.11 kcal/mol.

Regarding TGGAACACGTGTTATA, the “relative binding free energy” value is -0.02 kcal/mol.

With TGGTACACGTGTTGCA, the “relative binding free energy” value worked out at 0.1 kcal/mol.

As for AAGTGCACGTGGGAGT, the “relative binding free energy” value is -0.11 kcal/mol.

Consider GCGGGCACGTGGGCGT, for which the “relative binding free energy” value was -0.16 kcal/mol.

For TTTGACACGTGAAGAG, the “relative binding free energy” value came to 0.11 kcal/mol.

Take TGCAGCACGTGTGGTG: the “relative binding free energy” value is -0.13 kcal/mol.

On to CCTGTCACGTGGTTGT, for which the “relative binding free energy” value was found to be 0.06 kcal/mol.

In the case of GGTTGCACGTGAGTCT, the “relative binding free energy” value is 0.31 kcal/mol.

Take TGTATCACGTGACGCT: the “relative binding free energy” value was 0.25 kcal/mol.

With ATGGGCACGTGCGATA, the “relative binding free energy” value is -0.15 kcal/mol.

Take TGGGACACGTGAAGTA: the “relative binding free energy” value turned out to be 0.25 kcal/mol.

On to TAAAGCACGTGTATGG, for which the “relative binding free energy” value was found to be 0 kcal/mol.

For the sequence GGAGGCACGTGTAAAT, the “relative binding free energy” value turned out to be 0.15 kcal/mol.

With CATTTCACGTGTTCGG, the “relative binding free energy” value is 0.22 kcal/mol.

Turning to GGTAGCACGTGATAGT, the “relative binding free energy” value amounted to 0.06 kcal/mol.

On to GGGGTCACGTGCTTAA, for which the “relative binding free energy” value came to 0.16 kcal/mol.

For the sequence AAGGGCACGTGCGGTT, the “relative binding free energy” value was -0.11 kcal/mol.

In the case of TATAGCACGTGTAGCG, the “relative binding free energy” value is -0.02 kcal/mol.

As for AGGGCCACGTGGTAAG, the “relative binding free energy” value is -0.23 kcal/mol.

As to AGAGGCACGTGTAATG, the “relative binding free energy” value was -0.08 kcal/mol.

In the case of GATGACACGTGGGTTA, the “relative binding free energy” value was found to be 0.04 kcal/mol.

On to GAGGGCACGTGGATTT, for which the “relative binding free energy” value was determined as 0.01 kcal/mol.

Take TGTAACACGTGAGAGG: the “relative binding free energy” value is 0.21 kcal/mol.

As for TGGAACACGTGTAAAT, the “relative binding free energy” value came out at 0.3 kcal/mol.

With TGGCGCACGTGTTTTG, the “relative binding free energy” value is -0.07 kcal/mol.

For the sequence CTGTTCACGTGGTCAT, the “relative binding free energy” value worked out at 0.27 kcal/mol.

For GGTTCCACGTGGTGAG, the “relative binding free energy” value was found to be 0.12 kcal/mol.

With TAAATCACGTGGGCGG, the “relative binding free energy” value was 0.11 kcal/mol.

With CGAAGCACGTGTGTGG, the “relative binding free energy” value was -0.05 kcal/mol.

With CGGGGCACGTGTAATG, the “relative binding free energy” value was -0.01 kcal/mol.

With TTAATCACGTGTATGG, the “relative binding free energy” value is 0.08 kcal/mol.

On to TGGTTCACGTGGTCGC, for which the “relative binding free energy” value came to 0.3 kcal/mol.

As to GTGGGCACGTGGTAAC, the “relative binding free energy” value was -0.02 kcal/mol.

For CGGGGCACGTGTGGAA, the “relative binding free energy” value was 0.07 kcal/mol.

As to ATGAGCACGTGCGTAT, the “relative binding free energy” value was -0.03 kcal/mol.

As for GGGGCCACGTGTGTTG, the “relative binding free energy” value is -0.1 kcal/mol.

On to AACGGCACGTGTTTAT, for which the “relative binding free energy” value was -0.01 kcal/mol.

Consider GAGTACACGTGATAGG, for which the “relative binding free energy” value is 0.28 kcal/mol.

AATAGCACGTGGGTGC: the “relative binding free energy” value was -0.26 kcal/mol.

As to CATAGCACGTGGTTTA, the “relative binding free energy” value is -0.1 kcal/mol.

As for ATTAGCACGTGTAATA, the “relative binding free energy” value came to 0.15 kcal/mol.

With GTGTCCACGTGGGGTC, the “relative binding free energy” value was -0.12 kcal/mol.

On to AGCGTCACGTGGGTCA, for which the “relative binding free energy” value is 0.01 kcal/mol.

Take TGTAGCACGTGAGCTG: the “relative binding free energy” value is 0.07 kcal/mol.

Take GTTGGCACGTGTGGTT: the “relative binding free energy” value turned out to be 0.03 kcal/mol.

In the case of GGTTGCACGTGGTTAG, the “relative binding free energy” value was 0.05 kcal/mol.

With GTTAGCACGTGTGTAC, the “relative binding free energy” value came to 0 kcal/mol.

As to GGTCGCACGTGTTAAG, the “relative binding free energy” value is 0.11 kcal/mol.

As to TTGCTCACGTGATTAT, the “relative binding free energy” value amounted to 0.34 kcal/mol.

As for CATTACACGTGAGGGG, the “relative binding free energy” value amounted to 0.23 kcal/mol.

Regarding TCGGACACGTGGAGTT, the “relative binding free energy” value was 0.06 kcal/mol.

As for TCCTTCACGTGTTGGT, the “relative binding free energy” value was determined as 0.2 kcal/mol.

On to ATTTGCACGTGATCGT, for which the “relative binding free energy” value was 0.03 kcal/mol.

Turning to CGTTGCACGTGGGGCA, the “relative binding free energy” value is -0.13 kcal/mol.

ATAGGCACGTGAGCGT: the “relative binding free energy” value was found to be 0.14 kcal/mol.

Turning to GGGATCACGTGGTGCT, the “relative binding free energy” value is 0.07 kcal/mol.

As to TATCGCACGTGATTTG, the “relative binding free energy” value was found to be 0.07 kcal/mol.

For the origin of these results see the BET-seq Pho4 binding data (Le et al. 2018).
